{
  "source": "PubChem BioAssay AID1345082",
  "about": "(National Center for Advancing Translational Sciences (NCATS), 2018)",
  "note": "Out of some 94,000 compounds screened, about 4,000 (4.3%) were called active. Inconclusive means that the source gave no clear call. Such entries were picked first, then a sample of the others. Calls follow the shape of the dose curve; as a rule, active = well fitted inhibition curve with a large enough effect; inconclusive = small, poorly fitted or top-dose-only effect; inactive = no such curve, though single readings can be large or run the other way. Potencies beside an inconclusive call are fits to weak or partial responses and may not hold up. Potency is read from the fitted curve at half-maximal effect; tags tell the direction and shape of the fitted curve.",
  "data": [
    {"experiment": "Cytotoxic Profiling in NIH 3T3 Cell Line of Diverse Libraries Using Quantitative High-Throughput Screening; also: nearly all actives have a fitted effect of over 55% in size", "conditions": "NIH 3T3 viability, CellTiter-Glo ATP luminescence, 48-72 h; series mostly up to 96.7 µM", "in_short": "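NIH 3T3 cells at 400 cells/well received 23 nL of compound by pintool and were incubated 48 or 72 h at 37 °C. Viability was read as ATP-coupled CellTiter-Glo luminescence.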", "values": [
      {"smiles": "COc1ccc(-c2ccc(NC(=O)C3CCCC3)cc2)nn1", "Potency": "inconclusive: 100 µM [inhibitor, partial curve, poor fit]"},
      {"smiles": "O=C(C1CCCN1C(=O)c1ccc(F)cc1)N1CCC(c2nc3ccncc3[nH]2)C1", "note": "(centres undefined)", "Potency": "inactive"},
      {"smiles": "COc1cccc(-c2nc(N3CCCCC3)ncc2C(=O)O)c1", "Potency": "inconclusive: 79.4 µM [inhibitor, single point]"},
      {"smiles": "Cc1ccccc1NC1CCn2c(nc(C)c2C(=O)Nc2ccc(F)cc2)C1", "note": "(centres undefined)", "Potency": "inconclusive: 17.8 µM [inhibitor, partial curve, poor fit]"},
      {"smiles": "O=C(NCc1ccccc1)C1CCc2nnc(CN[S+](=O)([O-])c3ccccc3Cl)n21", "note": "(centres undefined)", "Potency": "inactive"},
      {"smiles": "Cc1ccccc1-c1cn[nH]c1C1CCN(C(=O)c2cnn3ccccc23)CC1", "Potency": "inconclusive: 56.2 µM [inhibitor, partial curve, poor fit]"},
      {"smiles": "O=C(Cn1cccc1-c1nc(-c2ccc3c(c2)OCO3)no1)Nc1ccc(Cl)cc1", "Potency": "inactive"},
      {"smiles": "Cc1cc(C)cc(N2CCC(N3CCC(CCC(=O)NC4CC4)CC3)CC2)c1", "Potency": "inactive"},
      {"smiles": "COc1ccccc1C(=O)N1CC(CN2C(=O)c3c(c(C)nn3-c3ccccc3)C2C2CC2)C1", "note": "(centres undefined)", "Potency": "inconclusive: 35.5 µM [inhibitor, partial curve]"},
      {"smiles": "COc1ccc(Cl)cc1NC(=O)Cn1c(N2CCC(C)CC2)nc(C)cc1=O", "Potency": "inconclusive: 35.5 µM [inhibitor, partial curve, poor fit]"},
      {"smiles": "CC(C)CCN(C)Cc1cccc(C(F)(F)F)c1", "Potency": "inactive"},
      {"smiles": "O=Cc1ccc(-c2ccc(O)cc2)cc1", "Potency": "inconclusive: 112 µM [inhibitor, partial curve, poor fit]"},
      {"smiles": "CCN1C(=O)CCC2(C(=O)NCc3cccc(C(F)(F)F)c3)CCCC=C12", "note": "(centres undefined)", "Potency": "inactive"},
      {"smiles": "O=C([C@@H]1CNC[C@H](C(=O)N2CCN(c3ccncc3)CC2)C1)N1CCOCC1", "Potency": "inactive"},
      {"smiles": "N#Cc1ccc(CN2CCC3(CC2)CC(c2cccnc2)=NO3)cc1", "Potency": "inactive"},
      {"smiles": "N[S+](=O)([O-])c1ccc2c(c1)OCCN(CCc1ccccc1)C2", "Potency": "inconclusive: 56.2 µM [inhibitor, partial curve, poor fit]"},
      {"smiles": "O=C(Nc1ccc(Cl)cc1)N1CCN(c2nccc(Nc3ccccc3Cl)n2)CC1", "Potency": "inconclusive: 44.7 µM [inhibitor, partial curve, poor fit]"},
      {"smiles": "O=C(Nc1cccnc1)c1ccc2c(c1)OCCN(c1ccccc1)C2", "Potency": "inconclusive: 10 µM [inhibitor, full curve, poor fit]"},
      {"smiles": "CCc1ccc(NC(=O)N2CCc3[nH]c4ccc(F)cc4c3C2)cc1", "Potency": "inconclusive: 79.4 µM [inhibitor, single point]"}
    ]}
  ]
}
